Measurements published in PubChem BioAssay AID686979 (National Center for Advancing Translational Sciences (NCATS), 2013).
“And” between values parts separate entries of the source, which are not always exact repeats. Identical values can stand only once. About 50,000 (12%) of roughly 420,000 compounds were called active. Inconclusive results, whose numbers are uncertain, are shown with a selection of clear calls. Calls come from the whole dose curve; as a rule, active = well fitted inhibition curve with a large enough effect; inconclusive = small, poorly fitted or top-dose-only effect; inactive = flat fitted curve, though single readings scatter. Where the call is inconclusive, the potency comes from a doubtful curve fit.

Assay: qHTS for Inhibitors of human tyrosyl-DNA phosphodiesterase 1 (TDP1): qHTS in cells in presence of CPT; note: nearly all actives have a fitted effect of over 55% in size
Conditions: chicken DT40 Tdp1-/-;hTDP1 cells + 20 nM CPT, ATP luminescence, 48 h; series mostly up to 46.2 µM
In short: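 Chicken DT40 Tdp1-/- cells complemented with human TDP1, 400 cells/well, exposed to compounds plus 20 nM camptothecin for at least 48 h at 37 C; viability read as ATP content by CellTiter-Glo luminescence.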
Potency is the fitted concentration of half-maximal effect; tags give direction and shape of the fitted curve.

| SMILES | Potency |
| --- | --- |
| NC1=NC(c2ccc(Cl)cc2)C(C(=O)c2ccccc2)N1 (stereo not drawn) | inconclusive: 23.1 µM [inhibitor, single point] |
| CCCCCCC(O)(c1ccccc1)C(CN1CCOCC1)c1ccccc1 (stereo not drawn) | active: 18.4 µM |
| Cc1cc(-c2nnc3n2N=C(c2ccccc2Br)CS3)n[nH]1 | inactive |
| COc1cccc(/C(C#N)=C/c2c(-c3ccc(Cl)cc3)nc3c(C)cccn23)c1 | active: 20.6 µM |
| O=c1[nH][nH]c(=O)c(Cl)c1Cl | inactive |
| O=C(CSCc1ccc(Br)cc1)N1CCOCC1 | inconclusive: 29.1 µM [inhibitor, single point] |
| O=C(Cn1c(=O)c(=O)n(Cc2ccccc2)c2ccc(Cl)cc21)Nc1ccc(F)cc1F | inconclusive: 29.1 µM [inhibitor, single point] |
| COc1cc(/C=C/C(=O)Nc2ccc(OC)c(S(=O)(=O)N3CCOCC3)c2)ccc1OCC#N | inactive |
| Cc1ccc(-n2ncc3c(NCCC4=CCCCC4)ncnc32)cc1C | active: 10.3 µM |
| c1ccc(NCc2cccnc2)cc1 | inactive |
| CCNC(=O)CC1C(=O)N(c2ccc(F)cc2)C(=O)N1CCc1ccc(OC)cc1 (stereo not drawn) | inactive |
| COc1ccc(-c2ccc([C@H]3[C@@H]4C=CCC[C@@]4(C)C(=O)N3Cc3ccccc3)c(F)c2)cc1 | inconclusive: 23.1 µM [inhibitor, single point] |
| Cc1cccc(C)c1Cn1c(C)c(C(=O)NCc2cccc(Cl)c2)sc1=O | inconclusive: 29.1 µM [inhibitor, single point] |
| COC(=O)c1ccc(NC2(C#N)C(=O)Nc3ccccc32)cc1 (stereo not drawn) | inconclusive: 29.1 µM [inhibitor, partial curve, poor fit] |
| COc1ccc(-c2oc3c(c2C#CC(C)(C)O)C(OC)CCC3)cc1 (stereo not drawn) | inconclusive: 29.1 µM [inhibitor, single point] |
| Cc1cccc(-n2ncc(C(=O)NC3CCCC3)c2C2CCN(C(=O)OC(C)(C)C)CC2)c1 | inconclusive: 29.1 µM [inhibitor, single point] |
| CC(=O)C1=C(C)NC(SCC(=O)c2ccc(Cl)cc2)=C(C#N)C1CC(C)C (stereo not drawn) | inactive |
| Cc1ccc([N+](=O)[O-])cc1N/C=C1\CCc2ccccc2C1=O | active: 20.6 µM |
| COc1ccc(/C=N/NC(=O)c2ccc(COc3ccccc3Cl)o2)cc1 | inconclusive: 23.1 µM [inhibitor, single point] |
| O=C(NCc1ccc(F)cc1)c1cc(C2CCCCN2S(=O)(=O)c2cccs2)on1 (stereo not drawn) | inactive |
| Cc1ccc(NC2CCCN(C(=O)C3CCCCC3)C2)cc1C (stereo not drawn) | inactive |
| O=C1c2oc3ccc(Br)cc3c(=O)c2C(c2cccc(F)c2)N1CCO (stereo not drawn) | inconclusive: 13 µM [inhibitor, partial curve] |
| O=[N+]([O-])c1ccc(-c2cn3nc(-c4ccccc4)c(-c4ccccc4)nc3n2)cc1 | inactive |
| COc1cc(-c2c(-c3ccc4c(c3)OCO4)noc2C)ccc1F | inconclusive: 35.5 µM [inhibitor, single point] and inconclusive: 18.4 µM [inhibitor, single point] |
| COc1ccc(C(=O)NC(=S)N2CCCCC2)cc1[N+](=O)[O-] | inconclusive: 18.4 µM [inhibitor, single point] |

| SMILES | Potency |
| --- | --- |
| COc1ccc(-c2onc(C)c2C)cc1S(=O)(=O)N1CCC(C)CC1 | inconclusive: 23.1 µM [inhibitor, single point] |
| CC(C)(C)N1OC2CC1c1nc3ccccc3n1C2 (stereo not drawn) | inactive |
| O=C(NCC1CCCO1)c1cccc(S(=O)(=O)Nc2cccc(C(F)(F)F)c2)c1 (stereo not drawn) | inconclusive: 20.6 µM [inhibitor, partial curve] |
| CCc1ccc(NC(=O)c2ccc(CN3C(=O)C(C)=C(c4ccc(C)cc4)S3(=O)=O)cc2)cc1 | inconclusive: 29.1 µM [inhibitor, single point] |
| COc1ccc(NC(=O)C2=C(C)C(=O)OC23CCC(C)CC3)cc1Cl (stereo not drawn) | inconclusive: 16.4 µM [inhibitor, single point] |
| COCCOC(=O)c1c(NC(=O)CN(C)c2ccccc2)sc(C(N)=O)c1C | inconclusive: 16.4 µM [inhibitor, single point] |
| COc1ccc(S(=O)(=O)N2CC(=O)Nc3ccccc32)cc1C | inactive |
| CSc1nc2c([nH]c3ccccc32)c(=O)n1-c1ccc(F)cc1 | inconclusive: 18.4 µM [inhibitor, partial curve] |
| Cc1ccccc1Nc1nc(N)nc(CSc2nnc3ccccn23)n1 | inactive |
| CCCn1c(-c2ccc(OC)cc2)nc2nc3ccccc3nc21 | active: 23.1 µM |
| Cc1ccccc1C(=O)N1CCC[C@H]1C(=O)N1CCC[C@H]1C(=O)NCc1ccccn1 | inactive |
| COc1ccc(Cl)cc1NC(=S)N(CCCN1CCOCC1)Cc1cn(C)c2ccccc12 | active: 13 µM |
| CCN1CCc2nc(NC(=O)c3cc(F)c(F)cc3Cl)sc2C1 | inactive |
| Cc1ccccc1C(=O)Nc1cccc(C(=O)N/N=C/c2ccccn2)c1 | inactive |
| Cn1c(=O)c2[nH]c(-c3ccc(S(=O)(=O)O)cc3)nc2n(C)c1=O | inactive |
| Cn1c(C(=O)NCc2cccc(F)c2)cc2cc(S(=O)(=O)N3CCCCC3)ccc21 | inconclusive: 8.2 µM [inhibitor, partial curve, poor fit] |
| Cc1c(Cl)cnc(NC(=O)CSc2nnc(C)n2Cc2ccccc2)c1Cl | inactive |
| CSc1ccccc1NC(=O)CN(C)Cc1c(O)ccc2ccccc12 | inconclusive: 18.4 µM [inhibitor, partial curve] |
| Cn1cccc1C(=O)N1CCC2(CCCN(c3ncccn3)C2)CC1 | inconclusive: 10.3 µM [inhibitor, partial curve] |
| Cc1ccc(N(C(=O)CCC(=O)Nc2cc(C)on2)C(C(=O)NC2CCCC2)c2cccs2)cc1 (stereo not drawn) | inconclusive: 35.5 µM [inhibitor, single point] |
| Cc1cccc(OCc2nnc(SCC(=O)N3CCN(C(=O)c4ccco4)CC3)n2C)c1C | inactive |
| COc1ccc(C(=O)Nc2cccc3c2CCCC3)cc1 | active: 10.3 µM |
| S=C1NC2(CCCCC2)Nc2ccccc21 | inconclusive: 29.1 µM [inhibitor, single point] |
| CCOc1ccccc1NC(=O)CSc1cc(=O)n(CC)c2ccccc12 | inconclusive: 25.9 µM [inhibitor, single point] |
| O=C(N/N=C/c1ccccc1OCc1ccccc1Cl)c1cccnc1 | inconclusive: 20.6 µM [inhibitor, single point] |

| SMILES | Potency |
| --- | --- |
| CC(C)CN1CC(Br)C(=O)NC1=O (stereo not drawn) | inconclusive: 16.4 µM [inhibitor, single point] |
| COc1ccc(S(=O)(=O)N(C)Cc2cccs2)cc1Br | inactive |
| O=C(O)c1cccc(Cn2c(Cl)c(/C=N/NC(=O)c3ccccc3Cl)sc2=O)c1 | inactive |
| COc1ccccc1CCNC(=O)c1cccn1-c1nnc(N2CCCCC2)s1 | inconclusive: 23.1 µM [inhibitor, single point] |
| CC(=O)Nc1ccc(S(=O)(=O)Nc2nc3ccccc3nc2Nc2cccc(S(N)(=O)=O)c2)cc1 | inactive |
| CCCCNC(=O)COC(=O)c1c2c(nc3ccccc13)/C(=C/c1cccs1)CC2 | active: 23.1 µM |
| CC(=O)N(C)C1=C(N2CCOCC2)C(=O)c2ccccc2C1=O | active: 0.184 µM |
| O=C(NCc1cccs1)N[C@@H](Cc1ccccc1)C(=O)O | inactive |
| CC(=O)c1cc(-c2ccccc2)n(CCC(=O)Nc2cc(C)cc(C)c2)c1C | inconclusive: 29.1 µM [inhibitor, single point] |
| COc1ccc(OCC(=O)Nc2ccc(N3CCN(Cc4ccccc4F)CC3)cc2)cc1 | inconclusive: 29.1 µM [inhibitor, single point] |
| O=C(NCCCc1ccccc1)C(=O)c1c[nH]c2ccccc12 | inconclusive: 25.9 µM [inhibitor, single point] |
| CC[C@@]1(C(=O)OC)N[C@H](CN(C)C(=O)Nc2ccc(OC)cc2)[C@@H]2C(=O)N(C)C(=O)[C@@H]21 | inactive |
| CCOc1ccc(-c2cc(C(F)(F)F)c(C#N)c(SCC(=O)Nc3ccccc3)n2)cc1 | inconclusive: 0.517 µM [inhibitor, full curve] |
| Cc1ccsc1/C=N/NC(=O)c1ccc([N+](=O)[O-])cc1 | inactive |
| Cc1cc(C)nc(NS(=O)(=O)c2ccc(NC(=O)c3ccccc3[N+](=O)[O-])cc2)n1 | inactive |
| C[C@@H]1CN(c2c(F)c(N)c3c(=O)c(C(=O)O)cn(C4CC4)c3c2F)C[C@H](C)N1 | inconclusive: 23.7 µM [inhibitor, single point] |
| Cc1cccc(NC(=O)CSc2nc(C)c(Cc3ccccc3)c(=O)[nH]2)c1 | inconclusive: 29.1 µM [inhibitor, single point] |
| CCOc1cnc(-c2ccc(OC)cc2)o1 | inactive |
| Cc1cc(C)c2oc(-c3ccc(Cl)c(NC(=O)c4ccc(C#N)cc4F)c3)nc2c1 | inconclusive: 18.4 µM [inhibitor, partial curve] |
| CC1=CC(C)(C)N(S(=O)(=O)c2ccc(C)cc2)c2ccc(C)cc21 | active: 5.8 µM |
| O=C(OC(c1ccc(NS(=O)(=O)c2ccccc2)cc1)(C(F)(F)F)C(F)(F)F)c1ccccc1 | inconclusive: 29.1 µM [inhibitor, single point] |
| N#Cc1ccc(CSc2ccc(S(=O)(=O)N3CCCC3)cn2)cc1 | inconclusive: 29.1 µM [inhibitor, single point] |
| Cc1ccc(C(=O)O)cc1NC(=O)CCc1ccccc1 | inconclusive: 23.1 µM [inhibitor, single point] |
